{"source": "PubChem BioAssay AID2147", "about": "(National Center for Advancing Translational Sciences (NCATS), 2009)", "note": "The campaign covered roughly 230,000 compounds. About 3,600 (1.6%) were called active. Inconclusive results, whose numbers are uncertain, are shown with a selection of clear calls. Calls come from the whole dose curve; as a rule, active = well fitted inhibition curve with a large enough effect (not every such curve was filed as active); inconclusive = small, poorly fitted or top-dose-only effect, or another doubt; inactive = no such curve, though single readings can be large or run the other way. Potencies of inconclusive entries are doubtful fits and often do not repeat. Note: nearly all actives have a fitted effect of over 50% in size. Potency is the fitted concentration of half-maximal effect; tags give direction and shape of the fitted curve.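 Throughout, for activity change, negative = inhibition: 0% = wells with enzyme and -100% = buffer wells without enzyme.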", "data": [{"molecular_target": "Lysine-specific demethylase 4E (Homo sapiens) (UniProt B2RXH2)", "sequence (B2RXH2 whole entry, looked up, the tested form may be a part)": "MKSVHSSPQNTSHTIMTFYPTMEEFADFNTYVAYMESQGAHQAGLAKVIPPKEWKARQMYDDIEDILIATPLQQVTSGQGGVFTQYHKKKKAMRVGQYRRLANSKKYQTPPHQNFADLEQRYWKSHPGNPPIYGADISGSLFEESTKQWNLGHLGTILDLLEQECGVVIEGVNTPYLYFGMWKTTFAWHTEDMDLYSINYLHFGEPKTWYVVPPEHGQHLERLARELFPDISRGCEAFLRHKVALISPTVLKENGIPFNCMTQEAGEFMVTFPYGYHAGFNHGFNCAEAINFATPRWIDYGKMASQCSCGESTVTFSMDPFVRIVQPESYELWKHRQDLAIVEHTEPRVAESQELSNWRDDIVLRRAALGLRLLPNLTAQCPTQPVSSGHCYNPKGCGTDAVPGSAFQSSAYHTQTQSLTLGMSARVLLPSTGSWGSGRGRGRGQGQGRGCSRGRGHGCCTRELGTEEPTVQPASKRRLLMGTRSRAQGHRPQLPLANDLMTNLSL", "test": "qHTS Assay for Inhibitors of Human Jumonji Domain Containing 2E (JMJD2E)", "settings": "JMJD2E catalytic domain, FDH-coupled NADH fluorescence (FDH is formaldehyde dehydrogenase); series mostly up to 57.1 µM; activity change, negative = inhibition: at the top concentration", "values": [{"smiles": "CC1(C)CC2CC(C)(CN2C(=O)c2ccc([N+](=O)[O-])cc2[N+](=O)[O-])C1", "note": "(centres undefined)", "activity change, negative = inhibition": "inactive: -2.09%"}, {"smiles": "CCOc1ccccc1C(=O)Nc1nnc(SCC(=O)Nc2cc(C)on2)s1", "Potency": "inconclusive: 8.91 µM [inhibitor, single point]"}, {"smiles": "O=C(Nc1ccc(S(=O)(=O)Nc2nccs2)cc1)c1ccc(=O)[nH]c1", "activity change, negative = inhibition": "inactive: -15.9%"}, {"smiles": "CSc1ccc(Cl)c(C(=O)Nc2nccs2)c1", "Potency": "inconclusive: 8.91 µM [inhibitor, full curve, poor fit]"}, {"smiles": "CSCCC(NC(=O)OC(C)(C)C)C(=O)Oc1ccc2c(=O)c(-c3ccc4c(c3)OCCO4)coc2c1", "note": "(centres undefined)", "Potency": "inconclusive: 35.5 µM [inhibitor, single point]"}, {"smiles": "N#Cc1c2c(c(NCCOCCO)n3c1nc1ccccc13)CCCC2", "Potency": "inconclusive: 28.2 µM [inhibitor, partial curve]"}, {"smiles": "O=C(O)CC12CC3CC(C1)CC(n1ncc(NCc4ccc5c(c4)OCO5)c(Cl)c1=O)(C3)C2", "activity change, negative = inhibition": "inactive: 2.31%"}, {"smiles": "Cc1ccc(-c2cc(C(=O)Nc3ccc(S(=O)(=O)Nc4nc(C)cc(C)n4)cc3)c3ccccc3n2)cc1", "Potency": "inconclusive: 35.5 µM [inhibitor, single point]"}, {"smiles": "Cc1cc(C)n(C/C=C/Cn2nc(C)cc2C)n1", "Potency": "inconclusive: 39.8 µM [inhibitor, single point]"}, {"smiles": "COc1ccccc1-c1nnc(NC(=O)OCC(C)C)s1", "Potency": "inconclusive: 39.8 µM [inhibitor, single point]"}, {"smiles": "COC1=Cc2c(ccc3ccc(=O)oc23)OC1(C)C", "Potency": "inconclusive: 35.5 µM [inhibitor, partial curve]"}, {"smiles": "Cc1ccccc1NC(=S)c1nc2ccccc2[nH]1", "Potency": "active: 18.9 µM"}, {"smiles": "CCCCCSc1nc2c(c(=O)[nH]c(=O)n2C)n1CCc1ccccc1", "activity change, negative = inhibition": "inactive: 2.93%"}, {"smiles": "C=CCOc1ccc(/C=N/Nc2ccccn2)cc1OC", "Potency": "inconclusive: 22.4 µM [inhibitor, single point]"}, {"smiles": "Oc1ccc(N=Cc2ccc(-c3cccs3)s2)cc1", "Potency": "inconclusive: 31.6 µM [inhibitor, partial curve]"}, {"smiles": "CCOC(=O)c1sc(NC(=O)CSc2n[nH]c(-c3ccncc3)n2)c(C#N)c1C", "Potency": "inconclusive: 39.8 µM [inhibitor, single point]"}, {"smiles": "Cc1ccc(NC(=S)Nc2cccc3cnccc23)c(C)c1", "Potency": "inconclusive: 10 µM [inhibitor, partial curve]"}, {"smiles": "COc1cccc(CNc2ccc3c(c2)CCC3)c1", "Potency": "inconclusive: 35.5 µM [inhibitor, single point]"}, {"smiles": "CN(CC(=O)Nc1ccccc1C(F)(F)F)C(=O)COc1ncnc2ccccc12", "Potency": "inconclusive: 39.8 µM [inhibitor, single point]"}]}]}
